Experimental data from the supplement of paper PMC12217912.
Some of the results follow. The full chains were built here from the parent and the listed change. Values near 0.05 are background.

B1: TEV protease; numbered along this chain (parent)
chain: MGESLFKGPRDYNPISSSICHLTNESDGHTTSLYGIGFGPFIITNKHLFRRNNGTLVVQSLHGVFKVKDTTTLQQHLVDGRDMIIIRMPKDFPPFPQKLKFREPQREERICLVTTNFQTKSMSSMVSDTSCTFPSGDGIFWKHWIQTKDGQCGSPLVSTRDGFIVGIHSASNFTNTNNYFTSVPKNFMELLTNQEAQQWVSGWRLNADSVLWGGHKVFMVKPEEPFQPVKEATQL

Variants of: B1
Assay: raw area under fraction-flipped curve 0-4 h after induction (AUC4h, not background-subtracted), DNA-recorder readout of cleavage of the substrate (dimensionless); higher = more cleavage of the substrate by the protease variant
Settings: temperature: 34 °C; time window: 0-4 h after rhamnose induction
Description: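 In vivo DNA recorder in E. coli TOP10(DE3) ΔrhaA at 34 °C. Each TEVp single-site mutant (parent TEVp 0) is paired with a single-site variant of the 7-mer TEVs (canonical ENLYFQ|S). The substrate sits between flexible linkers in a Bxb1-sfGFP-TEVs-SsrA fusion, so cleavage stabilises Bxb1 and speeds flipping of a recombination array, read by NGS. The value is the raw area under the fraction-flipped curve over 0-4 h after rhamnose induction (AUC4h), with ≥20 reads per time point. It is not background-subtracted; inactive controls average about 0.047.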
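Note: Bxb1 expression induced with 0.2% (w/v) L-rhamnose at OD600 near 0.5, cultures sampled hourly, flipped fraction per protease–substrate barcode pair counted by paired-end Illumina sequencing.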

Variant | area with substrate ENLYAQS | area with substrate ENLYDQS | area with substrate ENLYMQS | area with substrate ENLYPQS | area with substrate ENLYRQS | area with substrate ENLYSQS | area with substrate ENLYTQS | area with substrate ENLYVQS | area with substrate ENLYWQS | area with substrate ENLYYQS | area with substrate ENLYCQS | area with substrate ENLYEQS | area with substrate ENLYGQS | area with substrate ENLYHQS | area with substrate ENLYIQS | area with substrate ENLYKQS | area with substrate ENLYNQS | area with substrate ENLYQQS | area with substrate ENLYLQS
D79F | 0.0761 | 0.0699 | 0.0927 | 0.069 | 0.0765 | 0.0517 | 0.0752 | 0.0828 | 0.0784 | 0.0748 | – | – | – | – | – | – | – | – | –
L22H | 0.0464 | 0.0443 | 0.0456 | 0.0465 | 0.0515 | – | 0.0632 | 0.0361 | 0.0363 | 0.0485 | 0.038 | 0.0454 | 0.0453 | 0.0595 | 0.0454 | 0.0438 | 0.0454 | 0.0512 | –
A207K | 0.0656 | 0.0701 | 0.0781 | 0.0759 | – | – | – | – | 0.0817 | – | – | 0.0914 | 0.0657 | 0.0665 | 0.0604 | 0.0619 | 0.0592 | – | 0.0809
Q75E | 0.0417 | 0.0578 | 0.0648 | 0.0575 | 0.0548 | 0.0654 | – | 0.0742 | 0.0618 | 0.0643 | – | – | 0.0626 | 0.0498 | 0.0936 | – | – | – | –
R10W | 0.0745 | 0.0682 | 0.0898 | 0.0676 | 0.0551 | 0.0775 | 0.0827 | 0.131 | 0.0803 | 0.0618 | 0.11 | 0.0598 | 0.0671 | 0.066 | 0.13 | 0.056 | 0.0685 | 0.0486 | 0.0879
E189C | 0.0761 | 0.0379 | 0.0696 | – | 0.0677 | 0.0693 | 0.056 | – | 0.058 | – | 0.0574 | 0.0682 | 0.0701 | 0.0521 | – | 0.0555 | 0.0632 | – | 0.0789
P225C | 0.0723 | – | 0.0503 | – | – | – | 0.0698 | – | 0.0764 | 0.0609 | – | 0.0642 | – | 0.0638 | 0.0997 | 0.0623 | 0.0768 | – | –
T147M | 0.0726 | – | 0.0646 | – | 0.0534 | 0.0761 | – | 0.0866 | 0.0594 | – | – | 0.0687 | 0.0588 | 0.0652 | – | – | – | – | –
K148C | 0.0703 | 0.0712 | 0.0829 | 0.0575 | 0.0682 | – | 0.0925 | 0.0888 | 0.0781 | 0.078 | 0.0682 | 0.0706 | 0.0624 | 0.0565 | 0.11 | 0.0581 | 0.0646 | – | 0.0855
G54C | 0.0703 | 0.0669 | 0.066 | 0.0727 | 0.049 | 0.0562 | 0.0612 | 0.0753 | 0.0618 | 0.0657 | 0.078 | 0.0698 | 0.0529 | 0.0684 | 0.0772 | 0.042 | 0.0613 | 0.0452 | 0.0714
Q197V | 0.0766 | – | 0.0804 | – | 0.0557 | 0.0619 | 0.115 | 0.16 | – | 0.0718 | – | 0.0686 | 0.0584 | 0.0526 | – | 0.0613 | 0.0761 | – | –
V157E | 0.0595 | 0.0469 | 0.0509 | 0.0527 | 0.0479 | – | – | 0.0572 | 0.0555 | – | – | 0.0529 | 0.0465 | 0.0619 | – | 0.0376 | 0.0499 | – | –
Q151T | 0.0614 | 0.05 | 0.0871 | 0.0605 | 0.0618 | 0.0655 | – | 0.115 | 0.0856 | 0.0698 | – | 0.08 | 0.07 | 0.0578 | – | – | 0.0708 | 0.0439 | –
I15M | 0.06 | – | – | 0.0774 | 0.0579 | – | 0.0743 | 0.0671 | 0.043 | 0.0683 | – | 0.0537 | 0.0529 | 0.0591 | 0.128 | 0.0597 | 0.0574 | 0.0534 | 0.0585
V183W | 0.0675 | 0.0564 | 0.0745 | 0.0812 | 0.0607 | 0.0557 | – | 0.113 | 0.0655 | – | – | 0.0585 | 0.0573 | 0.0603 | 0.0831 | 0.0717 | 0.0508 | 0.0682 | 0.0685
N13F | 0.0806 | 0.0604 | 0.0856 | 0.0513 | 0.0582 | 0.0687 | 0.0825 | 0.109 | 0.0809 | 0.0684 | 0.0774 | 0.0705 | 0.0641 | 0.0663 | – | 0.068 | 0.0776 | 0.0644 | 0.0806
H29P | 0.081 | 0.07 | 0.0625 | – | 0.0655 | 0.0662 | 0.054 | 0.0825 | – | 0.0691 | 0.0648 | 0.0651 | 0.0639 | 0.0661 | 0.0852 | 0.0668 | 0.0473 | 0.0556 | 0.0772
W212G | 0.0663 | 0.0639 | 0.0528 | – | – | 0.0538 | – | 0.0789 | – | 0.0586 | – | – | – | 0.0597 | 0.0494 | – | – | 0.0465 | 0.0465
A196D | 0.084 | 0.066 | 0.0657 | 0.0593 | 0.0519 | – | – | 0.0997 | – | 0.0634 | 0.0842 | 0.0854 | 0.0701 | – | 0.131 | 0.0573 | 0.0613 | 0.0556 | –
A196F | 0.092 | 0.0572 | 0.0834 | 0.0592 | 0.0587 | – | – | 0.121 | 0.0767 | 0.0828 | 0.0916 | 0.0673 | – | 0.072 | – | – | 0.0558 | – | 0.0944
W199F | 0.0687 | 0.0598 | 0.0694 | 0.0628 | 0.059 | – | 0.0613 | – | – | 0.0638 | 0.0685 | 0.0629 | 0.0489 | 0.0712 | 0.0745 | – | 0.0645 | – | –
Q59G | 0.0404 | 0.05 | 0.0756 | 0.0694 | 0.0513 | 0.0549 | – | 0.118 | – | – | – | 0.0718 | 0.0711 | 0.066 | 0.13 | 0.054 | 0.0666 | 0.0602 | –
I164Q | 0.0375 | 0.0535 | 0.0486 | 0.0517 | – | 0.0533 | – | 0.0433 | 0.0501 | 0.0472 | – | 0.05 | 0.0536 | 0.0571 | 0.0403 | 0.0348 | – | 0.0638 | 0.0471
E231N | 0.0937 | 0.0633 | 0.0679 | – | 0.0651 | – | 0.0678 | 0.104 | – | 0.0671 | – | – | – | 0.0783 | 0.142 | 0.0251 | – | – | 0.0788
V165P | 0.071 | 0.0838 | 0.0813 | 0.0458 | – | – | 0.0622 | 0.0495 | 0.0528 | – | 0.0572 | 0.0497 | 0.0724 | 0.0465 | 0.0651 | 0.0587 | 0.0507 | 0.0737 | –
